Data published in the supplement of paper PMC10320760.
This is a noisy data set.

B1: Ydj1; a variant is named by its letters at X, in order (parent)
chain: MVKETKFYDILGVPVTATDVEIKKAYRKCALKYHPDKNPSEEAAEKFKEASAAYEILSDPEKRDIYDQFGEDGLSGAGGAGGFPGGGFGFGDDIFSQFFGAGGAQRPRGPQRGKDIKHEISASLEELYKGRTAKLALNKQILCKECEGRGGKKGAVKKCTSCNGQGIKFVTRQMGPMIQRFQTECDVCHGTGDIIDPKDRCKSCNGKKVENERKILEVHVEPGMKDGQRIVFKGEADQAPDVIPGDVVFIVSERPHKSFKRDGDDLVYEAEIDLLTAIAGGEFALEHVSGDWLKVGIVPGEVIAPGMRKVIEGKGMPIPKYGGYGNLIIKFTIKFPENHFTSEENLKKLEEILPPRIVPAIPKKATVDECVLADFDPAKYNRTRASRGGANYDSDEEEQGGEGVQCXXX

Variants of: B1
Test: enrichment factor, frequency at 37 °C / frequency at 25 °C (thermotolerance selection) (ratio); higher = more growth at 37 °C, higher likelihood of farnesylation
Details: with Saccharomyces cerevisiae ydj1Δ (yWS304); selective temperature 37 °C; reference temperature 25 °C

Row | Variant | enrichment factor
1 | VQT | 1.73
2 | VQL | 2.33
3 | VQV | 2.93
4 | VQK | 1.04
5 | VQY | 2.59
6 | VQP | 0.134
7 | VQM | 1.95
8 | VQN | 1.27
9 | VQQ | 1.87
10 | VQW | 1.66
11 | PQP | 0.171
12 | PQY | 1.67
13 | PQR | 0.12
14 | PQQ | 1.68
15 | PQS | 2.01
16 | PQW | 1.65
17 | PQL | 1.73
18 | PQT | 1.93
19 | PQV | 1.56
20 | PQN | 1.5
21 | PQM | 1.44
22 | PQK | 0.149
23 | FRF | 1.07
24 | FRD | 0.274

Row | Variant | enrichment factor
25 | FRE | 0.182
26 | FRA | 1.08
27 | FRC | 0.279
28 | SRA | 0.205
29 | SRE | 0.187
30 | SRD | 0.119
31 | SRC | 0.148
32 | DQP | 0.179
33 | DQN | 0.29
34 | DQQ | 1.71
35 | DQV | 0.57
36 | DQL | 0.134
37 | DQR | 0.163
38 | DQM | 1.78
39 | DQK | 0.149
40 | DQS | 1.14
41 | DQW | 0.175
42 | DQY | 0.249
43 | DQT | 0.352
44 | YRD | 0.264
45 | YRC | 0.508
46 | YRE | 0.148
47 | YRA | 0.177
48 | LRA | 0.212

Row | Variant | enrichment factor
49 | LRD | 0.154
50 | LRE | 0.115
51 | LRC | 0.0895
52 | YQY | 1.48
53 | YQT | 2.46
54 | YQV | 3.85
55 | YQN | 2.19
56 | YQI | 1.48
57 | YQW | 1.27
58 | YQK | 0.155
59 | YQQ | 2.55
60 | YQR | 0.136
61 | YQS | 2.18
62 | YQP | 0.406
63 | YQM | 2.56
64 | YQL | 1.52
65 | QQT | 1.57
66 | QQL | 1.91
67 | QQP | 0.147
68 | QQR | 0.189
69 | QQW | 1.96
70 | QQN | 1.79
71 | QQY | 1.95
72 | QQV | 2.14

Row | Variant | enrichment factor
73 | QQM | 2.75
74 | QQQ | 1.83
75 | QQS | 1.66
76 | QQK | 0.155
77 | QQI | 2.21
78 | WRE | 1.25
79 | WRA | 1.59
80 | WRC | 0.116
81 | WRD | 0.72
82 | TQT | 1.83
83 | TQY | 1.95
84 | TQK | 0.207
85 | TQS | 2.01
86 | TQP | 0.161
87 | TQN | 1.69
88 | TQW | 1.63
89 | TQV | 2.08
90 | TQR | 0.182
91 | TQM | 2.2
92 | TQI | 1.57
93 | TQQ | 1.54
94 | TQL | 1.73
95 | WQR | 0.183
96 | WQI | 1.58

Row | Variant | enrichment factor
97 | WQV | 1.92
98 | WQQ | 2.18
99 | WQY | 1.59
100 | WQK | 0.204
101 | WQN | 1.77
102 | WQP | 1.62
103 | WQT | 1.89
104 | WQW | 1.74
105 | WQS | 1.97
106 | WQL | 1.82
107 | WQM | 2.22
108 | SQI | 1.63
109 | SQM | 1.41
110 | SQY | 2.79
111 | SQL | 1.72
112 | SQV | 1.65
113 | SQN | 1.8
114 | SQQ | 1.49
115 | SQS | 1.95
116 | SQK | 0.188
117 | SQW | 1.5
118 | SQT | 1.78
119 | SQP | 0.163
120 | SQR | 0.13

Row | Variant | enrichment factor
121 | MRA | 0.128
122 | MRD | 0.17
123 | MRE | 0.0956
124 | MRC | 0.159
125 | FQW | 0.956
126 | FQM | 1.74
127 | FQT | 1.93
128 | FQK | 0.227
129 | FQQ | 2.48
130 | FQN | 1.68
131 | FQV | 1.91
132 | FQY | 1.21
133 | FQL | 0.914
134 | FQR | 0.105
135 | FQS | 1.77
136 | FQP | 1.57
137 | GRA | 0.146
138 | GRC | 0.0991
139 | GRD | 0.126
140 | GRE | 0.118
141 | GRF | 0.335
142 | TRD | 0.174
143 | TRE | 0.0876
144 | TRA | 0.0932

Row | Variant | enrichment factor
145 | TRC | 0.121
146 | LQR | 0.255
147 | LQK | 0.561
148 | LQM | 1.73
149 | LQP | 0.143
150 | LQQ | 1.53
151 | LQY | 1.48
152 | LQW | 1.24
153 | LQS | 1.69
154 | LQT | 1.55
155 | LQN | 1.35
156 | LQL | 1.64
157 | LQV | 1.68
158 | ARE | 0.138
159 | ARA | 0.111
160 | ARF | 0.899
161 | ARD | 0.159
162 | ARC | 0.127
163 | ERD | 0.0633
164 | ERF | 0.196
165 | ERC | 0.159
166 | ERA | 0.0719
167 | ERE | 0.163
